Here are results for 53 compounds from PubChem BioAssay AID1347073 (National Center for Advancing Translational Sciences (NCATS), 2019).

In all, about 45,000 compounds went through this assay and about 200 (0.44%) were called active. Inconclusive results (about 7%) are left out. Calls come from the whole dose curve; as a rule, active = well fitted activation curve with a large enough effect; inconclusive = small, poorly fitted or top-dose-only effect; inactive = no such curve, though single readings can be large or run the other way. The list shows a part of the results.

The nature of the experiment: qHTS of TDP-43 Inhibitors: NCGC Sytravon Library Screen. Note: 0% is about no effect; nearly all actives have a fitted effect of over 55% in size. Conditions: yeast TDP-43 toxicity rescue, BacTiter-Glo growth, 24 h; series mostly up to 46.1 µM; growth rescue (activation): at the top concentration. A digest of the protocol: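 TDP-43-expressing yeast, pregrown in raffinose, seeded at OD600 0.02 in galactose medium with compound for 24 hr at 30 deg C. Growth read by BacTiter-Glo luminescence, so rescue of toxicity appears as activation.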
(In general: qHTS replaces the single test concentration by a dilution series.)
`CCOC(=O)C(OC(=O)c1sc(=S)n(C)c1C)C(C)=O` (stereo not drawn): the “growth rescue (activation)” value is inactive: -4.54%.

In the case of `Cc1ccc(C)c(NC(=O)CN(C)C(=O)Cc2ccc(Cl)cc2Cl)c1`, the “growth rescue (activation)” value was inactive: 10.1%.

In the case of `Cc1nnc(-c2ccc(Cl)cc2)[nH]c1=O`, the “growth rescue (activation)” value was inactive: -8.67%.

For the compound `O=C(NC1CCC(O)CC1)c1ccc(Br)o1` (stereo not drawn), the “growth rescue (activation)” value was inactive: 1.93%.

With `CC(=O)Cc1nsc(NC(=O)c2ccc(-c3ccccc3Cl)o2)n1`, the “growth rescue (activation)” value is inactive: 35.9%.

With `C=CCOc1ccc(/C=C/C(=O)OCC(=O)N2CCN(C(C)=O)CC2)cc1`, the “growth rescue (activation)” value is inactive: -10.7%.

`Cc1c(C(=O)Nc2nc3ccccc3[nH]2)cccc1[N+](=O)[O-]`: the “growth rescue (activation)” value is inactive: -4.8%.

`CC1=C(C(=O)N2CCOCC2)C(c2c(F)cccc2F)NC(=O)N1` (stereo not drawn): the “growth rescue (activation)” value is inactive: -0.617%.

For the compound `CC(C)OC(=O)Cn1nc(C(F)(F)F)c2c1CCCC2`, the “growth rescue (activation)” value was inactive: -0.82%.

In the case of `O=C(NC(=S)NNS(=O)(=O)c1ccccc1)c1ccccc1[N+](=O)[O-]`, the “growth rescue (activation)” value was inactive: 23.9%.

In the case of `COc1cc(/C=C2\SC(=Nc3ccc(O)cc3)NC2=O)cc(OC)c1OC`, the “growth rescue (activation)” value is inactive: -14%.

With `Cc1ncc([N+](=O)[O-])n1CC(=O)Nc1ccc(F)c(F)c1`, the “growth rescue (activation)” value was inactive: -2.23%.

`CCOC(=O)C1(Cc2ccc(Cl)cc2)CCN(CCCn2cccn2)CC1`: the “growth rescue (activation)” value is inactive: 8.81%.

Take `Cc1ccc(SCC(=O)NN=C2CCN(C)CC2)cc1`: the “growth rescue (activation)” value was inactive: 7.3%.

Consider `Cc1ccc(S(=O)(=O)NN2C(=O)/C(=C/c3ccccn3)SC2=S)cc1`, for which the “growth rescue (activation)” value is inactive: 8.81%.

Regarding `COc1ccc(-c2noc(-c3ccccc3C(=O)NCC3CCCO3)n2)cc1` (stereo not drawn), the “growth rescue (activation)” value is inactive: -10.5%.

Turning to `Cc1cc(NC(=O)Cn2nc([N+](=O)[O-])c(Br)c2C)no1`, the “growth rescue (activation)” value is inactive: -2.7%.

For the compound `Cc1nc2nc(C)c(NS(=O)(=O)c3ccc(Cl)cc3)c(=O)n2[nH]1`, the “growth rescue (activation)” value was inactive: 16.2%.

Regarding `CCOc1c(Cl)cc(CNCc2ccncc2)cc1OC`, the “growth rescue (activation)” value is inactive: 11.5%.

As for `CCOc1ccc(S(=O)(=O)N2CCC(C(=O)N3CCCC3)CC2)cc1C`, the “growth rescue (activation)” value was inactive: -20.7%.

As for `O=C(Nc1ccc(Br)cc1Cl)c1ccc(OCC2CCCO2)cc1` (stereo not drawn), the “growth rescue (activation)” value was inactive: 3.77%.

Turning to `COc1ccc(C(=O)O/N=C(\N)c2ccccn2)cc1`, the “growth rescue (activation)” value is inactive: -20.1%.

Consider `CN(C)S(=O)(=O)c1cc(C(=O)NCc2ccccc2)c(Cl)cc1Cl`, for which the “growth rescue (activation)” value was inactive: 1.49%.

As for `N=c1n(Cc2ccc(Cl)cc2)c2ccccc2n1CC(O)COc1ccccc1` (stereo not drawn), the “growth rescue (activation)” value was inactive: 11.4%.

Consider `Cc1ccnc(N2CCC(C(=O)NNC(=O)COc3cccc4ccccc34)CC2)n1`, for which the “growth rescue (activation)” value was inactive: -4.06%.

For the compound `CC(=O)Nc1cccc(-c2nn[nH]n2)c1`, the “growth rescue (activation)” value is inactive: 14.2%.

For the compound `CCOc1ccc(C(=O)NCCc2cnc[nH]2)cc1`, the “growth rescue (activation)” value is inactive: 12.8%.

As to `Cc1cc2nc3c(=O)n(CCc4ccccc4)c(=O)[nH]c3nc2cc1N`, the “growth rescue (activation)” value was inactive: -4.7%.

Take `Cn1nnnc1SCCNC(=O)C1CCC(=O)N(Cc2ccc(Cl)cc2)C1` (stereo not drawn): the “growth rescue (activation)” value is inactive: -23%.

For `COc1ccc(NC(=O)CS(=O)CC(=O)Nc2ccc(-n3cnnn3)c(C)c2)cc1` (stereo not drawn), the “growth rescue (activation)” value was inactive: 10.9%.

Take `CCOC(=O)c1ccc2nc(CCC(=O)N[C@H](C(=O)OC)C(C)C)c(=O)n(CC)c2c1`: the “growth rescue (activation)” value was inactive: 12.1%.

As for `CSc1ccccc1C(=O)OCC(=O)N1CCCCCC1`, the “growth rescue (activation)” value was inactive: -9.16%.

In the case of `CC(=O)Nc1ccc(/C=N/NC(=O)CCN2CCN(c3ccccc3)CC2)cc1`, the “growth rescue (activation)” value is inactive: 2.57%.

As to `CCOc1ccc(NC(=O)CNC(=O)Cc2ccccc2)cc1`, the “growth rescue (activation)” value was inactive: -7.77%.

Turning to `CC(=O)Cn1nnc2sc(-c3ccccc3)cc2c1=O`, the “growth rescue (activation)” value was inactive: 12.1%.

Take `CCCCCCNC(=O)CCNS(=O)(=O)c1ccc(C)cc1`: the “growth rescue (activation)” value is inactive: 3.63%.

On to `CCOC(=O)C1=C(C)N(C)C(=O)NC1c1c(O)ccc2ccccc12` (stereo not drawn), for which the “growth rescue (activation)” value is inactive: 5.66%.

On to `Cc1cc(=O)[nH]c(SCC(=O)O)c1C#N`, for which the “growth rescue (activation)” value was inactive: 11.7%.

As to `CS(=O)(=O)N1CCC(C(=O)NNC(=O)Nc2ccc(F)c(Cl)c2)CC1`, the “growth rescue (activation)” value was inactive: -25.4%.

Take `Cc1ccc(OC(C)C(=O)N2CCN(c3ccccn3)CC2)cc1` (stereo not drawn): the “growth rescue (activation)” value was inactive: 6.05%.

For the compound `CSc1ccccc1C(=O)C1CCCN(C(=O)c2ccc(N3CCOCC3)cc2)C1` (stereo not drawn), the “growth rescue (activation)” value is inactive: 7.97%.

Regarding `COc1cc(/C=N/NC(=O)c2cccc(NC(=O)c3ccccc3)c2)ccc1O`, the “growth rescue (activation)” value is inactive: 13.3%.

Consider `FC(F)(F)c1cnc(Oc2ccccc2-c2nnc(-c3ccc(Cl)cc3)o2)c(Cl)c1`, for which the “growth rescue (activation)” value was inactive: 7.26%.

Take `CC(C)n1cc(CN2CCCC(C(=O)Nc3cccc(-c4cc5ccccc5[nH]4)c3)C2)cn1` (stereo not drawn): the “growth rescue (activation)” value was inactive: -29.4%.

As to `CCOc1cc(CNCCN2CCOCC2)ccc1OCc1ccccc1Cl`, the “growth rescue (activation)” value was inactive: 19.4%.

In the case of `COc1ccc(C(=O)NNC2=NS(=O)(=O)c3ccccc32)cc1OC`, the “growth rescue (activation)” value is inactive: 2.88%.

Regarding `CS(=O)(=O)c1ccccc1C(=O)Nc1nc2ccccc2[nH]1`, the “growth rescue (activation)” value was inactive: -9.07%.

For `COc1ccc(-n2cnnc2SCC(=O)N2CCN(c3ccccc3)CC2)cc1`, the “growth rescue (activation)” value was inactive: -33.4%.

Take `Cc1cccc2c(C(=O)n3cccn3)cc(-c3ccccc3Cl)nc12`: the “growth rescue (activation)” value is inactive: 17.3%.

For `CCC(=O)Nc1ccc(Cl)c(NC(=S)NC(C)=O)c1`, the “growth rescue (activation)” value is inactive: 10.7%.

Turning to `O=C(COC(=O)c1cc([N+](=O)[O-])ccc1NCCO)Nc1cccnc1Cl`, the “growth rescue (activation)” value was inactive: 11.1%.

For the compound `CCN(CC)CCNC(=O)Cn1cnc2sc(C)c(S(=O)(=O)N3CCN(c4ccccc4OC)CC3)c2c1=O`, the “growth rescue (activation)” value was inactive: -2.27%.

Consider `COc1ccc(CCNC(=O)COC(=O)Cc2ccccc2F)cc1`, for which the “growth rescue (activation)” value is inactive: 8.3%.
